Measured values taken from the supplement of paper PMC11417369.
Some of the results follow.

test system: PfAP2-HC AP2 domain (GST-tagged); assay: gcPBM binding intensity (ln(normalized median fluorescence intensity)); higher = stronger DNA binding
Outline: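 Binding intensity is defined as the maximum Masliner-normalised natural-log median intensity across replicate spots for either probe orientation. It was measured on an Agilent 4 × 180k array of primer-extended double-stranded 36-bp intergenic genomic probes and negative controls, to which GST-tagged P. falciparum DNA-binding domains made in E. coli were applied for 1 h in 1× PBS with 1% milk, 0.2 mg/ml BSA, 0.5% salmon testes DNA and 0.03% Triton X-100. Detection was by Alexa488 anti-GST antibody and scanning at 488 nm.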

Sequence | gcPBM binding intensity (ln)
TTTCATTTAGCTTTTACACACTATATATCATTGATT [CACACA_site6158] | 9.91
AAATAAAAAAGTAGTACACACTTCACGATATTTTTT [CACACA_site6015] | 9.87
AAAAATATAAACTGCACACACACAAAAAAAGAAAAA [CACACA_site648] | 10.8
TTTTTTTTAAAAAACACACACCTAAACAAGATATTT [CACACA_site6541] | 9.91
CATATTTTTAAATACACACACATAAAAAAAAAAAAA [CACACA_site1095] | 10.2
AATCTAATATAATGCACACATAAAAAAAAAATCAAA [CACACA_site2714] | 9.77
TATATTTACAATAAAACGTTATTTTTTGTTATTTTC [CACACA_negctrl_site612] | 9.62
TTATTATAATCATTAGTGCATATATTATTTTTATAT | 9.66
TATATACATATATGTACACACATTACAGATGTACAT [CACACA_site966] | 9.99
AAAAAAAAAAAAAAAAGTACAAATAAAAAAAAAATA [XGTACX_site4814] | 9.66
TTATTCACTTCTTTTTAAAAAAAAAAAAAAAAAAAA [CACACA_negctrl_site223] | 8.85
TTGTTAATGGTACGAACACACATATAAAGATGCATA [CACACA_site2044] | 9.68
ATTTCGAATATTAAGTGTACAATATAAATATATAAA [XGTACX_site6674] | 9.54
TTATATGAATTTTAGATTTATAATACAAGAATATTC [CACACA_negctrl_site70] | 9.31
ATTAAATACATTAACACACACACAAATATGTACATA [CACACA_site7372] | 11
ATATTATATAATATACGTACATATATTATGCATAAA [XGTACX_site7895] | 9.6
TACGTAGCCACACTAACACACACAAATATGCACAAT [CACACA_site8942] | 10.9
TTTTTTTCTGTGAGTGCATGTAATAAAATAAATTTA [TGCATGCA_site276] | 9.17
TTCAAAAATATATAATGTACACAAATATAAAAGAAT [XGTACX_site1944] | 9.81

Sequence | gcPBM binding intensity (ln)
TGTTATTTTAAAAAAAAAATTATTAACTTAAAAAAA [CACACA_negctrl_site1641] | 9.23
TTACTTAAGAAACACACACACAAAAAAAAAAAAAAA [CACACA_site946] | 10.1
ATCATAATCATAAAAAGTACAAACGATAAAATAAAT [XGTACX_site3832] | 9.89
TATGTAAAAAATTTAACACACACATATATATATATA [CACACA_site8829] | 10.4
TATTATTCATAATTTATCTTTTAAATTAAATCACAA [GTGCAC_negctrl_site288] | 9.1
TATTTATAATAGTGTACACAATTATAAACTGAATAT [CACACA_site6041] | 9.72
TATTATTGTCTTTCAAAAAAAAAAAAAAAAAAAAAA [CACACA_negctrl_site1242] | 8.61
CAACATATATTAATATGTACATATATATAGATATAT [XGTACX_site4107] | 9.66
CACAGATAAATTAACACACACACACCCATATATATA [CACACA_site3960] | 10.5
CTTTTTGAAATATTAACACACATTTTGTTAATTAAT [CACACA_site4046] | 9.73
ATAATATAACACAAATGTACAAAAAATAAATAAATA [XGTACX_site385] | 9.82
CATACTCACCAACACACACACACACCCATATAGAAT [CACACA_site592] | 11.1
TATATATATACTTAATGTACATATATATATATATAT [XGTACX_site3102] | 9.66
ATAAAAATACAGTTAACACACATGTGTATTTATATG [CACACA_site7727] | 10.2
GAAAACGTTTGAAGTTGTACATATGTATAAAAAGAA [XGTACX_site2304] | 9.85
ATGGTCTGTTAAAGATGTACTTTTTAAAAATAAACG [XGTACX_site2583] | 9.38
AAAAGGAAGATATATACACACATACAAATATATATA [CACACA_site5236] | 10.1
CTATTTGGGGGAAGAGTGCATGACATGAATATAAAA | 9.64
CTATATTATAAATATACACACATATCTTAAGTATAA [CACACA_site3096] | 9.71

Sequence | gcPBM binding intensity (ln)
ATTAGTATTAGATGATGTACATTTATATTGAAATAT [XGTACX_site8537] | 9.63
TTGATGTATACAATGTAGATTATTTAATATTTCAAC [CACACA_negctrl_site73] | 9.6
TTTTTTTTTTTTTTCACACACTAATAATATTATCAT [CACACA_site4417] | 9.78
ATAAATTTTTAAAAATATGAATTATGTAATTTGTGA [CACACA_negctrl_site1621] | 9.64
CATATAATAAATAGATGTACAGACTATATATATATA [XGTACX_site6575] | 9.79
TTTATATGATACACACGTACATATACACATATACAC [XGTACX_site8123] | 10.1
TATATATATATTTTTGCACACATTTTTTAAGGTACA [CACACA_site2145] | 10.2
TATAATATTTATATAACACACATATAGATTTATTTA [CACACA_site6269] | 9.57
AATAGGAAAGATTTTGCATGTGATATAAGTAATTTT [TGCATGCA_site657] | 9.46
ATGTAAAATTAATATTGTACTTTTCCATCATGATAC [XGTACX_site2669] | 9.55
TATATTAAAGGGGTTTCACACACATGTATAATTAAT [CACACA_site7950] | 10.2
TATTATTTAATCAAATGTACATAGAAAATGTATGTA [XGTACX_site4433] | 9.45
ATATATATTATAATCTGTACATAAATATATAATAAA [XGTACX_site5425] | 9.62
TTGTTTTATACATAGTGTACATATAAAAATTTTTTT [XGTACX_site7549] | 9.57
ATTTTCCCTAGAATATGTACACATAGTAAATATTAT [XGTACX_site7499] | 9.68
ATATATAAATATGAAACACACATTCTATTTAATTCG [CACACA_site1450] | 9.75
CAGATAAATAAACACACACACACATATATATATATA [CACACA_site9311] | 10.3
AAATAAAGAAATGCAAGTACATACTAAACTAATCCA [XGTACX_site1209] | 10
AAAAAAAAAAAAGAAAAATATATATATAAATAAATA [GTGCAC_negctrl_site569] | 9.47
